The text below walks through data of the supplement of paper PMC12217912.

Sequences and labels used below:
B1: TEV protease; numbered along this chain (parent)
chain: MGESLFKGPRDYNPISSSICHLTNESDGHTTSLYGIGFGPFIITNKHLFRRNNGTLVVQSLHGVFKVKDTTTLQQHLVDGRDMIIIRMPKDFPPFPQKLKFREPQREERICLVTTNFQTKSMSSMVSDTSCTFPSGDGIFWKHWIQTKDGQCGSPLVSTRDGFIVGIHSASNFTNTNNYFTSVPKNFMELLTNQEAQQWVSGWRLNADSVLWGGHKVFMVKPEEPFQPVKEATQL

The variants in this assay derive from B1. The experiment in a line: raw area under fraction-flipped curve 0-4 h after induction (AUC4h, not background-subtracted), DNA-recorder readout of cleavage of the substrate (dimensionless); higher = more cleavage of the substrate by the protease variant. To be noted: temperature: 34 °C; time window: 0-4 h after rhamnose induction. How it is done: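 In vivo DNA recorder in E. coli TOP10(DE3) ΔrhaA at 34 °C. Each TEVp single-site mutant (parent TEVp 0) is paired with a single-site variant of the 7-mer TEVs (canonical ENLYFQ|S). The substrate sits between flexible linkers in a Bxb1-sfGFP-TEVs-SsrA fusion, so cleavage stabilises Bxb1 and speeds flipping of a recombination array, read by NGS. The value is the raw area under the fraction-flipped curve over 0-4 h after rhamnose induction (AUC4h), with ≥20 reads per time point. It is not background-subtracted; inactive controls average about 0.047.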

This is one part of the list. Sequences were assembled here from the parent chain. Inactive controls read about 0.05.
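Note: Bxb1 expression induced with 0.2% (w/v) L-rhamnose at OD600 near 0.5, cultures sampled hourly, flipped fraction per protease–substrate barcode pair counted by paired-end Illumina sequencing.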

With MGESLFKGPRDYNPISSSICHLTNESDGHTTSLYGIGFGPFIITNKHLFRRNNGTLVVQSLHGVFKVKDTTTLQQHLVDGRDMIIIRMPKDFPPFPQKLKFREPQREERICLVTTNFQTKSMSSMVSDTSCTFPSGDGIFWKHWIQTKDGQCGSPLVSTRDGFIVGIHSASNFTNTNNYFTSVDKNFMELLTNQEAQQWVSGWRLNADSVLWGGHKVFMVKPEEPFQPVKEATQL [P184D], the “area with substrate ENLYFAS” value came to 0.0566, the “area with substrate ENLYFCS” value came to 0.0695, the “area with substrate ENLYFES” value turned out to be 0.0473 and the “area with substrate ENLYFGS” value turned out to be 0.0624. The “area with substrate ENLYFIS” value came to 0.0529, the “area with substrate ENLYFKS” value turned out to be 0.0547, the “area with substrate ENLYFMS” value turned out to be 0.0574 and the “area with substrate ENLYFNS” value stood at 0.0537. The “area with substrate ENLYFPS” value came out at 0.0514, the “area with substrate ENLYFTS” value is 0.0537, the “area with substrate ENLYFVS” value was found to be 0.0423 and the “area with substrate ENLYFWS” value turned out to be 0.0476. Besides, the “area with substrate ENLYFYS” value was determined as 0.0597.

For the variant MGESLFKGPRDYNPISSSICHLTNESDGHTTSLYGIGFGPFIITNKHLFRRNNGTLVVQALHGVFKVKDTTTLQQHLVDGRDMIIIRMPKDFPPFPQKLKFREPQREERICLVTTNFQTKSMSSMVSDTSCTFPSGDGIFWKHWIQTKDGQCGSPLVSTRDGFIVGIHSASNFTNTNNYFTSVPKNFMELLTNQEAQQWVSGWRLNADSVLWGGHKVFMVKPEEPFQPVKEATQL [S60A], the “area with substrate ENLYFAS” value is 0.0567, the “area with substrate ENLYFCS” value was found to be 0.0674, the “area with substrate ENLYFES” value came out at 0.0689 and the “area with substrate ENLYFFS” value is 0.0818. Further, the “area with substrate ENLYFHS” value worked out at 0.0578, the “area with substrate ENLYFIS” value came out at 0.0562, the “area with substrate ENLYFLS” value was 0.0539 and the “area with substrate ENLYFMS” value came out at 0.0628. In addition, the “area with substrate ENLYFNS” value amounted to 0.0683, the “area with substrate ENLYFPS” value came out at 0.0676, the “area with substrate ENLYFRS” value was 0.0673 and the “area with substrate ENLYFSS” value worked out at 0.0658. For the same variant, the “area with substrate ENLYFVS” value worked out at 0.0531 and the “area with substrate ENLYFWS” value was 0.0645.

With MGESLFKGPRDYNPIPSSICHLTNESDGHTTSLYGIGFGPFIITNKHLFRRNNGTLVVQSLHGVFKVKDTTTLQQHLVDGRDMIIIRMPKDFPPFPQKLKFREPQREERICLVTTNFQTKSMSSMVSDTSCTFPSGDGIFWKHWIQTKDGQCGSPLVSTRDGFIVGIHSASNFTNTNNYFTSVPKNFMELLTNQEAQQWVSGWRLNADSVLWGGHKVFMVKPEEPFQPVKEATQL [S16P], the “area with substrate ENLYFAS” value came out at 0.0694, the “area with substrate ENLYFCS” value was determined as 0.0603, the “area with substrate ENLYFDS” value was 0.0565 and the “area with substrate ENLYFES” value worked out at 0.067. Also, the “area with substrate ENLYFFS” value is 0.0684, the “area with substrate ENLYFHS” value was 0.0818, the “area with substrate ENLYFIS” value was 0.0609 and the “area with substrate ENLYFKS” value was determined as 0.0369. Also, the “area with substrate ENLYFLS” value came out at 0.0686, the “area with substrate ENLYFMS” value amounted to 0.0677, the “area with substrate ENLYFNS” value was determined as 0.0618 and the “area with substrate ENLYFPS” value was found to be 0.0576. The “area with substrate ENLYFRS” value stood at 0.064, the “area with substrate ENLYFSS” value turned out to be 0.0748 and the “area with substrate ENLYFTS” value was 0.0516.

On to MGESLFKGPRDYNPISSSICHLTNESDGHTTSLYGIGFGPFIITNKHLFRRNNGTLVVQSLHGVFKVKDTTTLQQHLVDGRDMIIIRMPKDFPPFPQKLKFREPQREERICLVTTNFQTKSMSSMVSDTSCTFPSGDGIFWKHWIQTKDGQCGSPLVSTRDGFIVGIHSASNFTNTNNYFTSVPKNFMELLTNQEAQQWVSGWRLNADSVLWGGHWVFMVKPEEPFQPVKEATQL [K216W], for which the “area with substrate ENLYFAS” value amounted to 0.0525, the “area with substrate ENLYFCS” value was 0.0745, the “area with substrate ENLYFFS” value amounted to 0.0595 and the “area with substrate ENLYFGS” value was determined as 0.0507. The “area with substrate ENLYFHS” value was determined as 0.0562, the “area with substrate ENLYFIS” value stood at 0.046, the “area with substrate ENLYFKS” value was found to be 0.0748 and the “area with substrate ENLYFMS” value amounted to 0.0708. Moreover, the “area with substrate ENLYFNS” value was determined as 0.0774, the “area with substrate ENLYFRS” value is 0.0441, the “area with substrate ENLYFSS” value was determined as 0.0602 and the “area with substrate ENLYFTS” value was found to be 0.073. Moreover, the “area with substrate ENLYFVS” value came to 0.0576 and the “area with substrate ENLYFWS” value amounted to 0.0682.

With MGESLFKGPRDYNPISSSICHLTNESDGHTTSLYGIGFGPFIITNKHLFRRNNGTLVVQSLHGVFKVKDTTTLQQHLMDGRDMIIIRMPKDFPPFPQKLKFREPQREERICLVTTNFQTKSMSSMVSDTSCTFPSGDGIFWKHWIQTKDGQCGSPLVSTRDGFIVGIHSASNFTNTNNYFTSVPKNFMELLTNQEAQQWVSGWRLNADSVLWGGHKVFMVKPEEPFQPVKEATQL [V78M], the “area with substrate ENLYFAS” value stood at 0.0492, the “area with substrate ENLYFCS” value was determined as 0.066, the “area with substrate ENLYFDS” value came out at 0.0454 and the “area with substrate ENLYFES” value amounted to 0.0602. Besides, the “area with substrate ENLYFFS” value was determined as 0.0559, the “area with substrate ENLYFGS” value is 0.0584, the “area with substrate ENLYFHS” value turned out to be 0.0572 and the “area with substrate ENLYFIS” value stood at 0.0454. Moreover, the “area with substrate ENLYFKS” value came out at 0.0459, the “area with substrate ENLYFMS” value stood at 0.0378, the “area with substrate ENLYFNS” value was found to be 0.0643 and the “area with substrate ENLYFPS” value was 0.0512. Moreover, the “area with substrate ENLYFRS” value worked out at 0.0541, the “area with substrate ENLYFSS” value turned out to be 0.0584, the “area with substrate ENLYFVS” value was 0.0533 and the “area with substrate ENLYFWS” value turned out to be 0.0313. Besides, the “area with substrate ENLYFYS” value stood at 0.0448.

Regarding MGESLFKGPRDYNPISSSICHLTNESDGHTTSLYGIGFGPFIITNKHLFRRNNGTLVVQSLHGVFKVKDTTTLQQHLVDGRDAIIIRMPKDFPPFPQKLKFREPQREERICLVTTNFQTKSMSSMVSDTSCTFPSGDGIFWKHWIQTKDGQCGSPLVSTRDGFIVGIHSASNFTNTNNYFTSVPKNFMELLTNQEAQQWVSGWRLNADSVLWGGHKVFMVKPEEPFQPVKEATQL [M83A], the “area with substrate ENLYFAS” value came to 0.0477, the “area with substrate ENLYFDS” value amounted to 0.0585, the “area with substrate ENLYFES” value is 0.0609 and the “area with substrate ENLYFFS” value is 0.0628. Further, the “area with substrate ENLYFGS” value turned out to be 0.067, the “area with substrate ENLYFHS” value worked out at 0.0363, the “area with substrate ENLYFIS” value came out at 0.0615 and the “area with substrate ENLYFKS” value was 0.0628. Also, the “area with substrate ENLYFLS” value is 0.0548, the “area with substrate ENLYFMS” value is 0.046, the “area with substrate ENLYFNS” value was 0.0668 and the “area with substrate ENLYFPS” value came to 0.057. Further, the “area with substrate ENLYFRS” value was 0.0661, the “area with substrate ENLYFTS” value worked out at 0.0557, the “area with substrate ENLYFVS” value was found to be 0.0221 and the “area with substrate ENLYFYS” value was 0.0543.

In the case of MGESLFKGPRDYNPISSSICHLTNESDGHTTSLYGIGFGPFIITNKHLFRRNNGTLVVQSLHGVFKVKDTTTLQQHLVDGRDMIIIRMPKDFPPFPQKLKFREPQREERICLVTTNFQTKSMSSMVSDTSCPFPSGDGIFWKHWIQTKDGQCGSPLVSTRDGFIVGIHSASNFTNTNNYFTSVPKNFMELLTNQEAQQWVSGWRLNADSVLWGGHKVFMVKPEEPFQPVKEATQL [T132P], the “area with substrate ENLYFAS” value came to 0.0417, the “area with substrate ENLYFES” value was 0.0637, the “area with substrate ENLYFFS” value stood at 0.0434 and the “area with substrate ENLYFGS” value was determined as 0.0541. Further, the “area with substrate ENLYFHS” value was 0.0707, the “area with substrate ENLYFMS” value came to 0, the “area with substrate ENLYFPS” value is 0.0612 and the “area with substrate ENLYFSS” value worked out at 0.0488. Moreover, the “area with substrate ENLYFTS” value worked out at 0.061, the “area with substrate ENLYFVS” value came out at 0.0729 and the “area with substrate ENLYFWS” value is 0.0445.

MGESLFKGPRDYNPISSSICHLTNESDGHTTSLYGIGFGPFIITNKHLFRRNNGTLVVQSLHGVFKVKDTTTLQQHLVDGRDMIIIRMPKDFPPFPQKLKFREPQREERICLVTTNFQTKSMSSMVSDTSCTFPSGDGIFWKHWIQTKDGQCGSPLVSTRDGFIVGIHSASNFTNTNNYFTSVPKNWMELLTNQEAQQWVSGWRLNADSVLWGGHKVFMVKPEEPFQPVKEATQL [F187W]: the “area with substrate ENLYFAS” value was determined as 0.0388, the “area with substrate ENLYFCS” value came out at 0.0539, the “area with substrate ENLYFDS” value was determined as 0.0521 and the “area with substrate ENLYFES” value came out at 0.0729. For the same variant, the “area with substrate ENLYFFS” value was determined as 0.0668, the “area with substrate ENLYFGS” value is 0.0589, the “area with substrate ENLYFHS” value stood at 0.042 and the “area with substrate ENLYFIS” value turned out to be 0.0431. Moreover, the “area with substrate ENLYFKS” value was found to be 0.0515, the “area with substrate ENLYFLS” value turned out to be 0.0566, the “area with substrate ENLYFMS” value amounted to 0.0604 and the “area with substrate ENLYFNS” value was 0.0605. Also, the “area with substrate ENLYFRS” value was 0.0558, the “area with substrate ENLYFSS” value was 0.0525, the “area with substrate ENLYFTS” value is 0.0675 and the “area with substrate ENLYFWS” value is 0.0547. Moreover, the “area with substrate ENLYFYS” value turned out to be 0.0555.
